Article PMC4776139, “Extended string-like binding of the phosphorylated HP1α N-terminal tail to the lysine 9-methylated histone H3 tail” (Scientific Reports, 2016)

Experiments:
Assay in all cases: ITC; 400 μM H3K9me peptide injected from the syringe into 40 μM protein in the cell (VP-ITC); 20 °C; 20 mM KPB pH 6.80, 10 mM NaCl; one-site binding model
Details in all cases: both partners purified
[1] = target: T1, un-phosphorylated HP1α chromodomain with N-terminal tail (unmod-NCD, amino acids 1–80) (mouse, UniProt Q61686 1-80)
T1 construct: three amino acids left at the N-terminus after cleavage by thrombin; HP1α (heterochromatin protein 1 alpha), amino acids 1–80: N-terminal tail (1–19) and chromodomain (20–80); 13C/15N-labelled for NMR; also called numod-NCD; source: E. coli BL21 (DE3) star, pCold/Amp (HP1αCD), purified (Ni-NTA, thrombin digestion, Superdex 75); not shown: His tag, N-terminal, cleaved

[2] = target: T2, phosphorylated HP1α chromodomain with N-terminal tail (phos-NCD, amino acids 1–80, phosphorylated at Ser11–14) (mouse, UniProt Q61686 1-80, phosphoserine at 11, 12, 13 and 14)
T2 construct: three amino acids left at the N-terminus after cleavage by thrombin; HP1α (heterochromatin protein 1 alpha), amino acids 1–80: N-terminal tail (1–19) and chromodomain (20–80); Species from the introduction (mouse HP1 isoforms); 13C/15N-labelled for NMR; not shown: His tag, N-terminal, cleaved

[3] = target: T3, phosphorylated HP1α NCDΔ1–4 (amino acids 5–80) (mouse, UniProt Q61686 5-80, the serine residues of the tail phosphorylated (Ser11–14))
T3 construct: three amino acids left at the N-terminus after cleavage by thrombin; HP1α, amino acids 5–80; Species from the introduction (mouse HP1 isoforms); also called phos-NCD^Δ1–4; source: E. coli BL21 (DE3) star, co-expressed with casein kinase II, purified (Ni-NTA, thrombin digestion, Superdex 75); not shown: His tag, N-terminal, cleaved

[4] = target: T4, HP1α NCDΔ1–9 (amino acids 10–80), un-phosphorylated (mouse, UniProt Q61686 10-80)
T4 construct: two amino acids attached to the N-terminus (HRV3C recognition site); HP1α, amino acids 10–80 (serine segment, acidic segment and chromodomain); Species from the introduction (mouse HP1 isoforms); also called un-phosphorylated D10; source: E. coli BL21 (DE3) star, purified (Ni-NTA, HRV3C recognition site in place of the thrombin site, Superdex 75); not shown: His tag, N-terminal, cleaved

[5] = target: T5, phosphorylated HP1α NCDΔ1–9 (amino acids 10–80) (mouse, UniProt Q61686 10-80, phosphorylated serine residues of 10DpSpSpSpS14 (Ser11–14))
T5 construct: two amino acids attached to the N-terminus (HRV3C recognition site); HP1α, amino acids 10–80 (phosphorylated serine segment, acidic segment and chromodomain); Species from the introduction (mouse HP1 isoforms); also called phos-NCD^Δ1–9; phosphorylated D10; not shown: His tag, N-terminal, cleaved

[6] = target: T6, HP1α chromodomain alone, NCDΔ1–19 (amino acids 20–80) (mouse, UniProt Q61686 20-80)
T6 construct: three amino acids left at the N-terminus after cleavage by thrombin; HP1α, amino acids 20–80 (chromodomain); Species from the introduction (mouse HP1 isoforms); also called isolated CD; source: E. coli BL21 (DE3) star, purified (Ni-NTA, thrombin digestion, Superdex 75); not shown: His tag, N-terminal, cleaved

[7] = target: T7, HP1α NCDΔ1–4 (amino acids 5–80), un-phosphorylated (mouse, UniProt Q61686 5-80)
T7 construct: three amino acids left at the N-terminus after cleavage by thrombin; HP1α, amino acids 5–80; Species from the introduction (mouse HP1 isoforms); source: E. coli BL21 (DE3) star, purified (Ni-NTA, thrombin digestion, Superdex 75); not shown: His tag, N-terminal, cleaved

[8] = target: T8, HP1α NCDΔ1–14 (amino acids 15–80), un-phosphorylated (mouse, UniProt Q61686 15-80)
T8 construct: three amino acids left at the N-terminus after cleavage by thrombin; HP1α, amino acids 15–80 (acidic segment 15EDEEE19 and chromodomain); Species from the introduction (mouse HP1 isoforms); source: E. coli BL21 (DE3) star, purified (Ni-NTA, thrombin digestion, Superdex 75); not shown: His tag, N-terminal, cleaved

- Kd [1]: 1770 nM
- Kd [2]: 170 nM
- Kd [3]: 380 nM
- Kd [4]: 160 nM
- Kd [5]: 40 nM
- Kd [6]: 13300 nM
- Kd [7]: 760 nM
- Kd [8]: 2520 nM
B1: H3K9me peptide (22-mer, […] of histone H3 with a C-terminal tyrosine) (peptide)
peptide: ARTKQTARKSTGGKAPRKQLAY
modifications: methylated lysine at 9 (Kme; 'the three methyl groups of H3K9', 'H3K9me3 peptide')
notes: histone H3, […]; C-terminal tyrosine added for quantitative analysis; The added tyrosine is no part of histone H3; also called H3K9me3 peptide; source: synthetic peptide, bought: Sigma Genosys
